In patent EP4671269A1 (Akeso Biopharma Co., Ltd., dated 2025):

T1: TGF-β2 (UniProt P61812 303-414)
T1 construct: also called TGF-β2 protein
T1 sequence (looked up): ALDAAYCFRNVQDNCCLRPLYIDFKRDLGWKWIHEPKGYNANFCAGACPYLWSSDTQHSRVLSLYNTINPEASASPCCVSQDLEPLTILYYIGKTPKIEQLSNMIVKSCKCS


What was measured:
TGF-β1 [1] = target: T2, TGF-β1 (human, UniProt P01137 part only); assay: competitive ELISA vs TGF-βRII-His-Biotin, TGF-β1 coated
T2 construct: also called human TGF-β1; TGF-β1 protein

TGF-β2 = target: T1, TGF-β2; assay: indirect ELISA, TGF-β2 coated
TGF-β1 [2] = target: T2, TGF-β1; assay: indirect ELISA, TGF-β1 coated
TGF-β1 [3] = target: T2, TGF-β1; assay: indirect ELISA, TGF-β1 coated; remark: listed apart in the source

T2 sequence (P01137 279-390 limits assumed): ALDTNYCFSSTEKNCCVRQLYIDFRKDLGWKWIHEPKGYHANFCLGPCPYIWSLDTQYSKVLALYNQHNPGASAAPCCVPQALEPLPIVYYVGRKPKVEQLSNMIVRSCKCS

Binder | EC50 (TGF-β1 [1]) [nM] | EC50 (TGF-β2) [nM] | EC50 (TGF-β1 [2]) [nM] | EC50 (TGF-β1 [3]) [nM]
TF02 (other, Anti-TIGIT IgG1 (L234A, L235A) antibody with a TGF-βRII fragment linked to the C-terminus of each heavy chain; also called anti-TIGIT antibody-TGF-βR fusion protein TF02) heavy: DVQLQESGPGLVKPSQTLSLTCTVSGHSFTSDYAWSWIRQPPGKGLEWIGYISYSDSTNYNPSLKSRVTISRDTSKNQFSLKLSSVTAADTAVYYCARLDYGNYGGAMDYWGQGTSVTVSS[human IgG1 constant region with changes not printed]GGGGSGGGGSGGGGSGGGGSGIPPHVQKSVNNDMIVTDNNGAVKFPQLCKFCDVRFSTCDNQKSCMSNCSITSICEKPQEVCVAVWRKNDENITLETVCHDPKLPYHDFILEDAASPKCIMKEKKKPGETFFMCSCSSDECNDNIIFSEEYNTSNPD light: DIQMTQSPSSLSASVGDRVTITCRSSQHVSTALAWYQQKPGKSPKLLIYSASSRYSGVPDRFSGSGSGTDFTFTISSLQPEDFATYYCQQHYITPWTFGGGTKLEIKRTVAAPSVFIFPPSDEQLKSGTASVVCLLNNFYPREAKVQWKVDNALQSGNSQESVTEQDSKDSTYSLSSTLTLSKADYEKHKVYACEVTHQGLSSPVTKSFNRGEC | 7.47 | 0.594 | 0.224 | –
TF01 (other, Anti-TIGIT IgG4 (F234A, L235A) antibody with a TGF-βRII fragment linked to the C-terminus of each heavy chain; also called anti-TIGIT antibody-TGF-βR fusion protein TF01) heavy: DVQLQESGPGLVKPSQTLSLTCTVSGHSFTSDYAWSWIRQPPGKGLEWIGYISYSDSTNYNPSLKSRVTISRDTSKNQFSLKLSSVTAADTAVYYCARLDYGNYGGAMDYWGQGTSVTVSSASTKGPSVFPLAPCSRSTSESTAALGCLVKDYFPEPVTVSWNSGALTSGVHTFPAVLQSSGLYSLSSVVTVPSSSLGTKTYTCNVDHKPSNTKVDKRV[human IgG4 Fc with S228P F234A L235A (EU numbers) not printed]GGGGSGGGGSGGGGSGGGGSGIPPHVQKSVNNDMIVTDNNGAVKFPQLCKFCDVRFSTCDNQKSCMSNCSITSICEKPQEVCVAVWRKNDENITLETVCHDPKLPYHDFILEDAASPKCIMKEKKKPGETFFMCSCSSDECNDNIIFSEEYNTSNPD light: DIQMTQSPSSLSASVGDRVTITCRSSQHVSTALAWYQQKPGKSPKLLIYSASSRYSGVPDRFSGSGSGTDFTFTISSLQPEDFATYYCQQHYITPWTFGGGTKLEIKRTVAAPSVFIFPPSDEQLKSGTASVVCLLNNFYPREAKVQWKVDNALQSGNSQESVTEQDSKDSTYSLSSTLTLSKADYEKHKVYACEVTHQGLSSPVTKSFNRGEC | – | 0.477 | – | –
TF01T (other, Point mutant of TF01; also called anti-TIGIT antibody-TGF-βR fusion protein TF01T) heavy: DVQLQESGPGLVKPSQTLSLTCTVSGHSFTSDYAWSWIRQPPGKGLEWIGYISYSDSTNYNPSLKSRVTISRDTSKNQFSLKLSSVTAADTAVYYCARLDYGNYGGAMDYWGQGTSVTVSSASTKGPSVFPLAPCSRSTSESTAALGCLVKDYFPEPVTVSWNSGALTSGVHTFPAVLQSSGLYSLSSVVTVPSSSLGTKTYTCNVDHKPSNTKVDKRV[human IgG4 Fc with S228P F234A L235A (EU numbers) not printed]GGGGSGGGGSGGGGSGGGGSGIPPHVQKTVNNDMIVTDNNGAVKFPQLCKFCDVRFSTCDNQKSCMSNCSITSICEKPQEVCVAVWRKNDENITLETVCHDPKLPYHDFILEDAASPKCIMKEKKKPGETFFMCSCSSDECNDNIIFSEEYNTSNPD light: DIQMTQSPSSLSASVGDRVTITCRSSQHVSTALAWYQQKPGKSPKLLIYSASSRYSGVPDRFSGSGSGTDFTFTISSLQPEDFATYYCQQHYITPWTFGGGTKLEIKRTVAAPSVFIFPPSDEQLKSGTASVVCLLNNFYPREAKVQWKVDNALQSGNSQESVTEQDSKDSTYSLSSTLTLSKADYEKHKVYACEVTHQGLSSPVTKSFNRGEC | – | – | – | 0.1
